{"source": "PubChem BioAssay AID1240", "about": "(Sanford-Burnham Center for Chemical Genomics, 2008)", "note": "The campaign covered roughly 50,000 compounds. About 800 (1.6%) showed an effect of 50% or more. The list shows a part of the results."}
{"biological_target": "Bcl-2-like protein 10 (Homo sapiens) (UniProt Q9HD36)", "sequence (Q9HD36 whole entry, looked up)": "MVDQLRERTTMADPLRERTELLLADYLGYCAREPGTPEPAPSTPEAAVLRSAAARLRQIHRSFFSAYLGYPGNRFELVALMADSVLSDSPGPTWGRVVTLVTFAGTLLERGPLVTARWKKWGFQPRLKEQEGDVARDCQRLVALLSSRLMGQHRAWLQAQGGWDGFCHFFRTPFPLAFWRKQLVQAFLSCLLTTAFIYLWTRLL", "test": "TR3 peptide-Bcl-B binding displacers, biochemical primary FP assay, phenotype converters (AID 1240);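 note: 0% = Bcl-B with tracer peptide and DMSO and 100% = tracer peptide lacking Bcl-B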", "details": "GST-Bcl-B / FITC-TR3 peptide fluorescence polarization; stronger effect = higher value; compound at 3.75 mg/L", "units": {"displacement": "%"}}
{"smiles": "CC1CCc2c(sc(NC(=O)c3ccc(Cl)c(Cl)c3)c2C(N)=O)C1", "note": "(centres undefined)", "displacement": -5.8}
{"smiles": "COc1cc(C=Nc2ccc(Nc3ccccc3)cc2)ccc1OCc1ccccc1", "displacement": 26.2}
{"smiles": "O=C(Nc1ccc(Cl)cn1)c1cc2ccccc2o1", "displacement": 13}
{"smiles": "COc1ccc(C(=O)O/N=C(\\c2ccncc2)c2ccc([N+](=O)[O-])cc2)cc1OC", "displacement": 0.6}
{"smiles": "Cc1cccc(NC(=O)C(=O)NCc2ccccc2Cl)c1", "displacement": 4.9}
{"smiles": "COc1ccc(C(=O)NC(=S)NCc2ccco2)cc1", "displacement": 9.4}
{"smiles": "COc1cc(NC(=O)c2ccccc2Cl)ccc1NC(=O)c1ccco1", "displacement": 27.4}
{"smiles": "COc1cccc(/C=C2\\C(=O)N(c3cccc(C(=O)O)c3)N=C2C)c1", "displacement": -7}
{"smiles": "CC(C)OC(=O)c1c(NC(=O)c2ccc([N+](=O)[O-])cc2Cl)sc2c1CCCCC2", "displacement": -10.4}
{"smiles": "Cc1ccc(S(=O)(=O)Nc2ccc(Cl)cc2)cc1[N+](=O)[O-]", "displacement": 10}
{"smiles": "CCOc1ccc(/C=C2\\C(=O)NC(=O)N(c3ccc(C)cc3)C2=O)cc1Br", "displacement": -0.9}
{"smiles": "COc1ccc(C(=O)CCNc2ccc3c(c2)OCCO3)cc1", "displacement": 6.2}
{"smiles": "C#CCOc1c(Cl)cc(C=O)cc1Cl", "displacement": -9.8}
{"smiles": "Cc1oc(C)c2c(=O)cc(-c3ccc(O)cc3)cc(O)c12", "displacement": 11.4}
{"smiles": "O=C(NCCCN1CCOCC1)/C(=C/c1ccc(-c2ccc(Cl)cc2)o1)NC(=O)c1ccccc1", "displacement": 8.1}
{"smiles": "O=C(Nc1ccc(-c2nc3ccccc3o2)c(O)c1)c1ccc(Cl)cc1", "displacement": 15.4}
{"smiles": "COc1cccc(N=c2ssc3c2-c2cc(C)c(C)cc2NC3(C)C)c1", "displacement": 1.4}
{"smiles": "O=C(NC12CC3CC(CC(C3)C1)C2)c1ccccc1", "displacement": -5.5}
{"smiles": "COc1ccccc1N1CCN(/N=C/C=C\\c2ccco2)CC1", "displacement": -6.1}
{"smiles": "COC(=O)c1c(NC(C)=O)sc(/C(C)=C/C#N)c1C", "displacement": 0.9}
{"smiles": "COc1ccc(-c2nnc(/N=C/c3c(C)[nH]n(-c4ccc(C)c(C)c4)c3=O)s2)cc1", "displacement": -2.9}
{"smiles": "O=C(Nc1ccc(Cl)cn1)C(Sc1ccccc1)c1ccccc1", "note": "(centres undefined)", "displacement": 7.7}
{"smiles": "NNC(=O)C1(c2ccccc2)CCCC1", "displacement": 9.8}
{"smiles": "O=C(c1ccccc1)C(Sc1ncn[nH]1)c1ccccc1", "note": "(centres undefined)", "displacement": 14.3}
{"smiles": "Cc1ccc(N2NC(=O)/C(=C/c3ccc(O)c(O)c3)C2=O)cc1", "displacement": -115}
{"smiles": "CC(C)CC(NC(=O)c1ccco1)C(=O)O", "note": "(centres undefined)", "displacement": 9.5}
{"smiles": "CCCCOc1ccc(-c2c(C#N)c(N)nc(SCc3ccc(Cl)cc3)c2C#N)cc1", "displacement": 4}
{"smiles": "CCOc1cc(OCC)cc(C(=O)Nc2ccc(Cl)c(Cl)c2)c1", "displacement": 10}
{"smiles": "CC(C)CCNC(=O)C(=O)NCC(C)O", "note": "(centres undefined)", "displacement": 12.1}
{"smiles": "O=C(COc1ccccc1[N+](=O)[O-])NC(c1ccccc1)c1c(O)ccc2ccccc12", "note": "(centres undefined)", "displacement": 1.6}
{"smiles": "CN(Cc1ccccc1)C(=O)c1ccc(CN2CCc3ccccc3C2)cc1", "displacement": -2}
{"smiles": "O=C1CN(C(=O)c2cccc(Cl)c2)C(c2ccccc2Cl)c2cc(Br)ccc2N1", "note": "(centres undefined)", "displacement": 3.1}
{"smiles": "Nc1nonc1N=Cc1cc(Br)ccc1O", "displacement": -12.8}
{"smiles": "COC(=O)c1ccc(N(C(=O)C(F)(F)F)C2C=CS(=O)(=O)C2)cc1", "note": "(centres undefined)", "displacement": 15.1}
{"smiles": "COc1cccc(CN2CCN(Cc3ccccn3)CC2)c1", "displacement": -24.8}
{"smiles": "CCOC(=O)c1c(C)[nH]c(N=Nc2ccccc2Cl)c1C", "displacement": 0.3}
{"smiles": "COC(=S)N/C(=N/S(=O)(=O)c1ccc(Cl)cc1)c1ccccc1", "displacement": 14}
{"smiles": "Clc1cccc(Cl)c1OCCCN1CCCC1", "displacement": -4}
{"smiles": "O=S(=O)(c1ccc2ccccc2c1)N1CCc2ccccc21", "displacement": 10.5}
{"smiles": "O=C1/C(=C\\c2ccc(-c3cccc([N+](=O)[O-])c3)o2)SC(=S)N1C1CCS(=O)(=O)C1", "note": "(centres undefined)", "displacement": 7.1}
{"smiles": "CN(C)c1ccc(C2C(C(=O)/C=C/c3ccccc3)=C(O)C(=O)N2CCCCCC(=O)O)cc1", "note": "(centres undefined)", "displacement": 3.4}
{"smiles": "O=C(N/N=C/c1ccco1)c1ccccn1", "displacement": -6.5}
{"smiles": "CCC(C)(C)C1CCc2c(sc(NC(=O)C(C)C)c2C#N)C1", "note": "(centres undefined)", "displacement": -8.2}
{"smiles": "CSC(=O)NC1(Cc2ccc(O)cc2)CCCCC1", "displacement": -4.1}
{"smiles": "C#CCn1cc(/C=C2\\C(=O)NC(=O)N(c3ccc(C)cc3)C2=O)c2ccccc21", "displacement": 66.4}
{"smiles": "COc1ccc(C(=O)CC(c2ccccc2)C2CCCCC2=O)cc1", "note": "(centres undefined)", "displacement": 3.8}
{"smiles": "COc1ccc(OC)c(C2C3=C(Nc4c2c(=O)n(C)c(=O)n4C)c2ccccc2C3=O)c1", "note": "(centres undefined)", "displacement": 8.5}
{"smiles": "COc1ccc(-c2nnc(SCC(=O)NN)n2-c2ccccc2)cc1", "displacement": -1}
{"smiles": "O=C1c2ccccc2C(=O)N1c1ccc2nc(SCc3ccccc3)sc2c1", "displacement": -2.2}
{"smiles": "CCN(CC)CCC(=O)c1ccc2c(c1)OCO2", "displacement": -5.3}
{"smiles": "COc1cc([N+](=O)[O-])cc(/C=C2/C(=O)NC(=O)N(c3cccc(C)c3)C2=O)c1O", "displacement": 1.7}
{"smiles": "Cc1cc(C)n(S(=O)(=O)c2ccc(Br)cc2C)n1", "displacement": 3.3}
{"smiles": "Cc1c(Cl)c(C(F)(F)F)nn1CC(=O)Nc1ccc(F)cc1F", "displacement": 11.4}
{"smiles": "COC(=O)C1=NN(C(=O)c2ccccc2)C(O)(c2ccc(OC)cc2)C1", "note": "(centres undefined)", "displacement": -16.1}
{"smiles": "CCOc1ccc(N2C(=O)c3cccc4cccc(c34)C2=O)cc1", "displacement": -9.7}
{"smiles": "CCOC(=O)C1C(=O)CC(O)(c2ccc(Cl)cc2)CC1C=C(Cl)Cl", "note": "(centres undefined)", "displacement": 14.9}
{"smiles": "CC1CC(N(C(=O)c2ccco2)c2ccccc2)c2ccccc2N1", "note": "(centres undefined)", "displacement": 10.5}
{"smiles": "CC(C)(C)CC(C)(C)NS(=O)(=O)c1ccc([N+](=O)[O-])cc1", "displacement": -1.3}
{"smiles": "COc1ccc(N(CC(=O)Nc2ccccc2Cl)S(C)(=O)=O)c(OC)c1", "displacement": -11.6}
{"smiles": "S=c1n(CN2CCOCC2)nc(-c2ccccc2Cl)n1-c1ccccc1", "displacement": 2.8}
{"smiles": "O=C1C(=O)N(c2cccnc2)C(c2ccc(F)cc2)/C1=C(\\O)c1ccc(Cl)cc1", "note": "(centres undefined)", "displacement": -19.7}
{"smiles": "O=C(Nc1ccc2c3c(cccc13)CC2)c1ccccc1[N+](=O)[O-]", "displacement": -2.5}
{"smiles": "N#Cc1cc2c(nc1SCC(=O)Nc1nccs1)CCCC2", "displacement": 3.8}
{"smiles": "COc1cc(OC)c(/C=C2\\C(=O)NC(=O)N(c3ccccc3)C2=O)c(OC)c1", "displacement": -3.3}
{"smiles": "O=C(Cc1ccc(F)cc1)Nc1cccc2ccccc12", "displacement": -2.3}
{"smiles": "Oc1ccc(Br)cc1CN1CCN(Cc2ccncc2)CC1", "displacement": 0.8}
{"smiles": "CCOC(=O)C(CCC(OC(=O)c1ccccc1)(C(=O)OCC)C(=O)OCC)(OC(=O)c1ccccc1)C(=O)OCC", "displacement": 3.7}
{"smiles": "Cc1ccc(O)c(N2C(=O)c3ccc(C(=O)c4cccc([N+](=O)[O-])c4)cc3C2=O)c1", "displacement": -26.4}
{"smiles": "COc1ccc(-c2cc(C(=O)NC3CCCCC3)c3ccccc3n2)c(OC)c1", "displacement": -0.1}
{"smiles": "O=C(c1ccc(F)cc1)N1CCN=C1c1ccccc1", "displacement": -19}
{"smiles": "O=C(c1ccc(N2CCN(C(=O)c3cccs3)CC2)cc1)c1cccc(F)c1", "displacement": -4}
{"smiles": "CC(=O)NC(=O)c1ccccc1OCC(=O)c1ccc(Br)cc1", "displacement": 1.8}
{"smiles": "O=C(/C=C/c1ccccc1)NC(=S)Nc1ccc(Cl)cc1Cl", "displacement": 0.3}
{"smiles": "O=C1C(=C(c2ccccc2)c2ccccc2)C(=O)c2ccccc21", "displacement": -5.3}
{"smiles": "CCOC(=O)c1c(NC(=S)Nc2ccc(OC)cc2)sc2c1CC(C)(C)OC2", "displacement": -4.4}
{"smiles": "CS(=O)(=O)N(CC(=O)O)c1cccc(C(F)(F)F)c1", "displacement": -0.2}
{"smiles": "CCCCn1c(O)c(C2=c3cc(Br)ccc3=NC2=O)sc1=S", "displacement": -1}
{"smiles": "Cc1cc(C)c(NC(=O)c2ccc(C(=O)Nc3c(C)cc(C)cc3C)cc2)c(C)c1", "displacement": 13.1}
{"smiles": "COC(=O)c1c(N)sc(C)c1-c1cc(C)ccc1C", "displacement": -0.7}
{"smiles": "COc1ccc(NC(=O)Cn2nc(C)c([N+](=O)[O-])c2C)cc1OC", "displacement": -2.3}
{"smiles": "O=C(O)c1ccc(Cl)c(S(=O)(=O)N2CCCC2)c1", "displacement": 5.8}
{"smiles": "CC(C)=C1C2C=CC1C1C(=O)N(c3ccc(Br)cc3[N+](=O)[O-])C(=O)C21", "note": "(centres undefined)", "displacement": 14.9}
{"smiles": "CC(c1ccccc1)C1CC(=O)N(c2ccc([N+](=O)[O-])cc2)C1=O", "note": "(centres undefined)", "displacement": 1.7}
{"smiles": "O=C1c2ccccc2C(=O)N1CCCCN(C(=O)c1ccc(Br)cc1)c1ccc(F)cc1F", "displacement": 1.2}
{"smiles": "CC(OCc1ccccc1)C(NC(=O)OC(C)(C)C)C(=O)Nc1nccs1", "note": "(centres undefined)", "displacement": 2.2}
{"smiles": "C/C(=N\\N1CCN(c2ccccc2)CC1)c1ccco1", "displacement": 2.5}
{"smiles": "CN(C(=O)COc1ccc(F)cc1)C1CCS(=O)(=O)C1", "note": "(centres undefined)", "displacement": 9.1}
{"smiles": "O=C(c1ccc(Cl)cc1)N1N=C(c2ccc(F)cc2)CC1(O)C(F)(F)F", "note": "(centres undefined)", "displacement": 0.8}
{"smiles": "C=CCN1C(=O)/C(=C/c2ccc(I)o2)SC1=S", "displacement": 13.6}
{"smiles": "O=C(c1cc([N+](=O)[O-])ccc1Cl)N1CCN(C(c2ccccc2)c2ccccc2)CC1", "displacement": 5.2}
{"smiles": "CCn1c2ccc(C(C)=O)cc2c2cc(C(C)=O)ccc21", "displacement": 12.5}
{"smiles": "O=C(O)C1CC(O)CN1C(=O)Oc1ccccc1", "note": "(centres undefined)", "displacement": 1.1}
{"smiles": "O=C(NN1C(=O)/C(=C/c2cccc(O)c2)SC1=S)c1ccccc1O", "displacement": 16.2}
{"smiles": "COc1ccc(NC(=O)c2ccccc2N)cc1", "displacement": -9.6}
{"smiles": "CC(C)(C)OC(=O)CC(O)(c1ccccc1)C(F)(F)F", "note": "(centres undefined)", "displacement": 0.7}
{"smiles": "COc1ccc(CCNC(=O)CCc2ccccc2O)cc1OC", "displacement": -6.6}
{"smiles": "C=CCn1cc(C)c(=O)n(CC(C)C)c1=O", "displacement": 8}
{"smiles": "Cc1ccc(OCCn2cc(C=C3C(=O)NC(=O)NC3=O)c3ccccc32)cc1C", "displacement": 79.3}
{"smiles": "COc1ccc(/C=C/C(=O)Nc2nc(-c3ccccc3)cs2)cc1S(=O)(=O)N1CCCCC1", "displacement": -0.4}
{"smiles": "COC(=O)c1cc(NC(=O)c2cccc3c(Br)cccc23)cc(C(=O)OC)c1", "displacement": 13.9}
{"smiles": "C=CCn1c(SC)nc(O)c(Cc2ccccc2)c1=O", "displacement": 1.7}
{"smiles": "COc1ccc(C(C)=O)cc1CSc1cc(C)c2ccccc2n1", "displacement": 0.4}
{"smiles": "O=C(/C=C/c1ccccc1)NC(=S)Nc1cc(Cl)ccc1Cl", "displacement": 9.4}
{"smiles": "O=C(O)c1ccccc1C(=O)c1cc([N+](=O)[O-])ccc1Cl", "displacement": -1.8}
{"smiles": "COc1cc(OC)c(OC)cc1CN1CCN(Cc2cccc(Br)c2)CC1", "displacement": -0.3}
{"smiles": "Cc1[nH]nc2c1C(c1cc([N+](=O)[O-])ccc1O)C(C#N)=C(N)O2", "note": "(centres undefined)", "displacement": -3.3}
{"smiles": "O=C(COc1ccccc1Cl)Nc1c[nH]c(=O)[nH]c1=O", "displacement": 9.6}
{"smiles": "CN1CCN(C(=O)c2cc(-c3ccc(Cl)c(Cl)c3)nc3ccccc23)CC1", "displacement": -5.5}
{"smiles": "COc1ccc(C(=O)CC(c2ccccc2)S(=O)(=O)c2ccccc2)cc1", "note": "(centres undefined)", "displacement": -0.9}
